Reference: a collection of fitness landscapes (doi:10.1016/j.celrep.2020.107928)
The full ranking holds about 81,000 sequences; the median of “one-hybrid fitness for binding parS DNA” is about -0.17, and the highest 2% start at about 0.51. Some of the results follow.

B1: Caulobacter ParB omega fusion; a variant is named by its letters at X, in order, B8GW30 (parent)
chain: MESVVVGEPGMSEGRRGLGRGLSALLGEVDAAPAQAPGEQLGGSREAPIEILQRNPDQPRRTFREEDLEDLSNSIREKGVLQPILVRPSPDTAGEYQIVAGERAWRAAQRAGLKTVPIMVRELDDLAVLEIGIIENVQRADLNVLEEALSYKVLMEKFERTQENIAQTIGKSXSHVANXMRLLXLPDEVQSYLVSGELTAXHARAIAAAADPVALAKQIIEGGLSVRETEALARKAPNLSAGKSKGGRPPRVKDTDTQALESDLSSVLGLDVSIDHRGSTGTLTITYATLEQLDDLCNRLTRGI

Variants of: B1
Test: one-hybrid fitness for binding parS DNA (scaled: cognate 1, non-cognate 0); higher = stronger binding
Conditions: with parS DNA site
Procedure, shortened: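 Fitness here means the log change in variant-to-wild-type read ratio between plasmids sequenced before and after selection. That scale was set so cognate equals 1 and non-cognate equals 0. The selection was a bacterial one-hybrid screen of Caulobacter ParB libraries, four specificity codons randomised, in E. coli USO carrying a HIS3 reporter with the site 19 bp from the promoter, grown 48 hours at 37°C on M9-minus-histidine with 0.1 mM IPTG and 5 mM 3-AT.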

Variant	one-hybrid fitness for binding parS DNA
VGWG	≤ 0.2
FCPC	≤ 0.2
NKLR	≤ 0.2
SESK	≤ 0.2
RYQD	≤ 0.2
RGHK	≤ 0.2
SLYT	≤ 0.2
YRIS	≤ 0.2
ANSC	≤ 0.2
NPAA	≤ 0.2
TWWG	≤ 0.2
MRTL	≤ 0.2
RDRW	≤ 0.2
AWHA	≤ 0.2
TSMV	≤ 0.2
IIEV	≤ 0.2
LLVC	≤ 0.2
RWDF	≤ 0.2
NHTL	≤ 0.2
FGYR	≤ 0.2
QRNV	≤ 0.2
KCSK	≤ 0.2
YTPR	≤ 0.2
SGMR	≤ 0.2
LQRP	≤ 0.2
MPAQ	≤ 0.2

Variant	one-hybrid fitness for binding parS DNA
MNMA	≤ 0.2
NRTN	≤ 0.2
LNSV	≤ 0.2
LRSR	≤ 0.2
GVYC	≤ 0.2
RVNI	≤ 0.2
SGGS	≤ 0.2
VFRR	≤ 0.2
VMFV	≤ 0.2
CRNL	≤ 0.2
QSIC	≤ 0.2
CLMW	≤ 0.2
FRAT	≤ 0.2
TIAE	≤ 0.2
NPAQ	≤ 0.2
RAKH	0.239
ASSD	≤ 0.2
LPQF	≤ 0.2
PAKT	≤ 0.2
HVNR	≤ 0.2
QVKT	≤ 0.2
SREL	≤ 0.2
PFRN	≤ 0.2
VKHM	≤ 0.2
WWHG	≤ 0.2
GDRM	≤ 0.2

Variant	one-hybrid fitness for binding parS DNA
TTLV	≤ 0.2
GGNG	≤ 0.2
WVHG	≤ 0.2
HRPR	≤ 0.2
KSQC	≤ 0.2
DTLV	≤ 0.2
AKSG	≤ 0.2
WKAV	≤ 0.2
PLID	≤ 0.2
QRNP	≤ 0.2
TPCK	≤ 0.2
LCRH	≤ 0.2
VDAR	≤ 0.2
DALS	≤ 0.2
QRTD	≤ 0.2
TFEL	≤ 0.2
MIPI	≤ 0.2
FSLM	≤ 0.2
WHAR	≤ 0.2
THAA	≤ 0.2
RVYE	≤ 0.2
PHRG	≤ 0.2
ADSP	≤ 0.2
DNQS	≤ 0.2
PMLL	≤ 0.2
WASR	≤ 0.2

Variant	one-hybrid fitness for binding parS DNA
MHYC	≤ 0.2
ETEN	≤ 0.2
MMVG	≤ 0.2
AISV	≤ 0.2
SCFS	≤ 0.2
KPYW	≤ 0.2
MWAI	0.223
RWKF	0.288
EYQR	≤ 0.2
NLVC	≤ 0.2
HNNF	≤ 0.2
QRPN	≤ 0.2
QWHI	≤ 0.2
TMSW	≤ 0.2
DFSS	≤ 0.2
VYLL	≤ 0.2
ATPG	≤ 0.2
LKSG	≤ 0.2
KYRS	0.225
NNYC	≤ 0.2
ISHD	≤ 0.2
TVQI	≤ 0.2
HHTC	≤ 0.2
AGWC	≤ 0.2
QRMV	≤ 0.2
NSLR	≤ 0.2

Variant	one-hybrid fitness for binding parS DNA
RVIF	≤ 0.2
RVYH	0.263
LFCA	≤ 0.2
RLSE	≤ 0.2
ISSI	≤ 0.2
SLKE	≤ 0.2
ELAV	≤ 0.2
RCPC	0.698
PPSG	≤ 0.2
QTQA	≤ 0.2
YDLS	≤ 0.2
RNWY	0.275
IPAV	≤ 0.2
PNDT	≤ 0.2
QYKD	≤ 0.2
VTFM	≤ 0.2
MCTR	≤ 0.2
LRNP	≤ 0.2
CVKR	≤ 0.2
RYFT	0.792
PVAN	≤ 0.2
ADAT	≤ 0.2
DMDV	≤ 0.2
PSKV	≤ 0.2
KENP	≤ 0.2
WKTL	≤ 0.2

Variant	one-hybrid fitness for binding parS DNA
QGSI	≤ 0.2
RGWM	≤ 0.2
DVYT	≤ 0.2
QMTH	≤ 0.2
LFCR	≤ 0.2
LLRT	≤ 0.2
FVAV	≤ 0.2
RRKV	0.232
TTCI	≤ 0.2
SAWS	≤ 0.2
DGVC	≤ 0.2
IAPF	≤ 0.2
ETLE	≤ 0.2
HHIH	≤ 0.2
IRRS	≤ 0.2
PSHP	≤ 0.2
RTYK	≤ 0.2
HFPW	≤ 0.2
WQSR	≤ 0.2
QLYW	≤ 0.2
AVRN	≤ 0.2
QSGG	≤ 0.2
YMEW	≤ 0.2
